According to US20140336193A1, “POTENT NON-UREA INHIBITORS OF SOLUBLE EPOXIDE HYDROLASE” (priority 2012, published 2014):
At least one structure is not confirmed: it was looked up by name or label, or the drawing left a doubt. Some compounds share one wording; it may come from a single statement.

biological target: T1, Human sEH (Homo sapiens, UniProt P34913); assay: Fluorescent assay with CMNPC substrate (Example 2); format: biochemical; conditions: SAR comparison; comparator mostly 7-12, for naphthalene analogs 7-38
T1 sequence (P34913 1-555): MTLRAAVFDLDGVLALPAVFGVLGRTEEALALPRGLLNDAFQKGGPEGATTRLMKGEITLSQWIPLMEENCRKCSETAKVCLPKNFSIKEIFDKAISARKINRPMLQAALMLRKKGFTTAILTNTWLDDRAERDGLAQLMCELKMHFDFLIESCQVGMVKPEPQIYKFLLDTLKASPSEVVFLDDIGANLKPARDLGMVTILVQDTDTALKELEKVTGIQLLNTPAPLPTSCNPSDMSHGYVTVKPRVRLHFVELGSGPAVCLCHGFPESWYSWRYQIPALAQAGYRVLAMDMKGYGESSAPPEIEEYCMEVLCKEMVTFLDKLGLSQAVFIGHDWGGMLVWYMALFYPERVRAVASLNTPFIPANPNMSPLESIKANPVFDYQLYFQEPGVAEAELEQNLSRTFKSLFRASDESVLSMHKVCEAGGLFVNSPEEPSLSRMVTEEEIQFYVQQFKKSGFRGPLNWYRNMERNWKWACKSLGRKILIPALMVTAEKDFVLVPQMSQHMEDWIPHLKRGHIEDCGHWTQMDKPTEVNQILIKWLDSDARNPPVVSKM
Procedure: A fluorescent assay was employed for high throughput screening (HTS) of inhibitors of sEH. Cyano(2-methoxynaphthalen-6-yl)methyl trans-(3-phenyloxyran-2-yl)methyl carbonate (CMNPC) was used as the fluorescent substrate. Human sEH (1 nM) was incubated with a compound of Formula I for 5 min in pH 7.0 Bis-Tris/HCl buffer (25 mM) containing 0.1 mg/mL of BSA at 30° C. prior to substrate introduction ([S]=5 μM). […] IC50 values are the average of the three replicates with at least two datum points above and at least two below the IC50.

**Q.** `Cc1ccc(S(=O)(=O)N2CCC(C(=O)Nc3ccccc3F)CC2)c(C)c1` [Compound 7-13] was tested. Which “potency against human sEH, in words” value did it give?
**A.** Its value is “did not significantly change the potency”.

**Q.** How did the “potency against human sEH, in words” value turn out when `Cc1ccc(S(=O)(=O)N2CCC(C(=O)Nc3ccccc3Br)CC2)c(C)c1` [Compound 7-15] was run?
**A.** The value was “did not significantly change the potency”.

**Q.** Which “potency against human sEH, in words” value does the source give for `COc1ccc(NC(=O)C2CCN(S(=O)(=O)c3ccc(C)cc3C)CC2)cc1` [Compound 7-18] here?
**A.** The value was “did not significantly changed the potency”.

**Q.** With `Cc1ccc(S(=O)(=O)N2CCC(C(=O)Nc3ccc(N4CCCCC4)cc3)CC2)c(C)c1` [Compound 7-25] as the molecule, how does the “potency against human sEH, in words” value read?
**A.** Its value is “did not improve the potency”.

**Q.** For `Cc1ccc(S(=O)(=O)N2CCC(C(=O)Nc3ccc(N4CCCCC4)c(C(N)=O)c3)CC2)c(C)c1` [Compound 7-26], which “potency against human sEH, in words” value is on record?
**A.** The value was “did not improve the potency”.

**Q.** With `Cc1ccc(S(=O)(=O)N2CCC(C(=O)Nc3ccc(N4CCOCC4)cc3)CC2)c(C)c1` [Compound 7-27] as the molecule, how does the “potency against human sEH, in words” value read?
**A.** Its value is “did not improve the potency”.

**Q.** For `Cc1ccc(S(=O)(=O)N2CCC(C(=O)Nc3ccc(C(F)(F)F)cc3)CC2)c(C)c1` [Compound 7-29], which “potency against human sEH, in words” value is on record?
**A.** Its value is “inhibition potencies increased”.

**Q.** How did the “potency against human sEH, in words” value turn out when `Cc1ccc(S(=O)(=O)N2CCC(C(=O)Nc3cccc(C(F)(F)F)c3)CC2)c(C)c1` [Compound 7-31] was run?
**A.** The value was “inhibition potencies increased”.

**Q.** How did the “potency against human sEH, in words” value turn out when `Cc1ccc(S(=O)(=O)N2CCC(C(=O)Nc3ccc(F)cc3)CC2)c(C)c1` [Compound 7-32] was run?
**A.** Its value is “did not show significant improvement in activity”.

**Q.** `Cc1ccc(S(=O)(=O)N2CCC(C(=O)Nc3ccc(Cl)cc3)CC2)c(C)c1` [Compound 7-33] was tested. Which “potency against human sEH, in words” value did it give?
**A.** Its value is “did not show significant improvement in activity”.

**Q.** For `Cc1ccc(S(=O)(=O)N2CCC(C(=O)Nc3ccc(Br)cc3)CC2)c(C)c1` [Compound 7-34], which “potency against human sEH, in words” value is on record?
**A.** The value was “did not show significant improvement in activity”.

**Q.** `Cc1ccc(S(=O)(=O)N2CCC(C(=O)Nc3ccc4ccccc4c3)CC2)c(C)c1` [Compound 7-38] was tested. Which “potency against human sEH, in words” value did it give?
**A.** Its value is “high potency”.

**Q.** With `COC(=O)c1ccc2cc(NC(=O)C3CCN(S(=O)(=O)c4ccc(C)cc4C)CC3)ccc2c1` [Compound 7-43] as the molecule, how does the “potency against human sEH, in words” value read?
**A.** The value was “slight decrease in activity”.

**Q.** With `Cc1ccc(S(=O)(=O)N2CCC(C(=O)Nc3ccc4c(c3)OCO4)CC2)c(C)c1` [Compound 7-45] as the molecule, how does the “potency against human sEH, in words” value read?
**A.** Its value is “subnano molar potent inhibitor”.

same assay, conditions: compared with 2-naphthalene analog 7-38

**Q.** For `Cc1ccc(S(=O)(=O)N2CCC(C(=O)Nc3cnc4ccccc4c3)CC2)c(C)c1` [Compound 7-40], which fold lower potency is on record?
**A.** The fold lower potency was 30 fold.

**Q.** For `Cc1ccc(S(=O)(=O)N2CCC(C(=O)Nc3ccc4ncccc4c3)CC2)c(C)c1` [Compound 7-41], which fold lower potency is on record?
**A.** The fold lower potency was 50 fold.

**Q.** For `Cc1ccc(S(=O)(=O)N2CCC(C(=O)Nc3ccc4cc(C(=O)O)ccc4c3)CC2)c(C)c1` [Compound 7-44], which fold lower potency is on record?
**A.** Its fold lower potency is 15 fold.

same assay, conditions: compared with compound 7-12

**Q.** With `Cc1ccc(S(=O)(=O)N2CCC(C(=O)Nc3ccc(OC(F)(F)F)cc3)CC2)c(C)c1` [Compound 7-23] as the molecule, how does the “fold increase in potency (lower IC50)” value read?
**A.** The value was “fourfold”.

**Q.** `Cc1ccc(S(=O)(=O)N2CCC(C(=O)Nc3ccc([N+](=O)[O-])cc3)CC2)c(C)c1` [Compound 7-24] was tested. Which “fold increase in potency (lower IC50)” value did it give?
**A.** The value was “five fold”.

**Q.** For `Cc1ccc(S(=O)(=O)N2CCC(C(=O)Nc3cc(Cl)cc(Cl)c3)CC2)c(C)c1` [Compound 7-35], which “fold increase in potency (lower IC50)” value is on record?
**A.** Its value is “twofold”.

**Q.** How did the “fold increase in potency (lower IC50)” value turn out when `Cc1ccc(S(=O)(=O)N2CCC(C(=O)Nc3ccc(Cl)c(Cl)c3)CC2)c(C)c1` [Compound 7-37] was run?
**A.** Its value is “threefold”.

same assay, conditions: compared with compound 7-18

**Q.** `Cc1ccc(S(=O)(=O)N2CCC(C(=O)Nc3ccc(O)cc3)CC2)c(C)c1` [Compound 7-19] was tested. Which fold decreased potency did it give?
**A.** Its fold decreased potency is “two fold”.

same assay, conditions: ortho substituent on phenyl, compared with compound 7-12

**Q.** `Cc1ccc(S(=O)(=O)N2CCC(C(=O)Nc3ccccc3Cl)CC2)c(C)c1` [Compound 7-14] was tested. Which “fold decrease in potency” value did it give?
**A.** Its value is 10 fold.

same assay, conditions: replacement of cycloalkyl ring with phenyl ring

**Q.** With `Cc1ccc(S(=O)(=O)N2CCC(C(=O)Nc3ccccc3)CC2)c(C)c1` [Compound 7-12] as the molecule, how does the “fold drop in potency against human sEH” value read?
**A.** Its value is 15 fold.
